Experimental data reported in the supplement of paper PMC12009370.
Some of the results follow. Many values rest on one well or one pass, so single values are uncertain.

How the values were obtained:
[1] = tested on: IMR-32; experiment: drug sensitivity score (DSS), single drug with vehicle (DSS (score)); higher = more cytotoxic; extreme values may be limits of the assay; settings: 72 h; co-treatment: vehicle (DMSO)
[2] = tested on: SK-N-AS; experiment: as above; settings: 72 h; co-treatment: vehicle (DMSO)
[3] = tested on: SK-N-AS; experiment: drug sensitivity score (DSS) in combination with SL-176 (DSS (score)); higher = more cytotoxic; extreme values may be limits of the assay; settings: 72 h; co-treatment: SL-176 11.2 uM (IC25 in IMR-32)
[4] = tested on: IMR-32; experiment: as above; settings: 72 h; co-treatment: SL-176 11.2 uM (IC25 in IMR-32)
[5] = tested on: SK-N-AS; experiment: drug sensitivity score (DSS) in combination with GSK2830371 (DSS (score)); neuroblastoma lines; SL-176 and GSK2830371 are WIP1 inhibitors; higher = more cytotoxic; extreme values may be limits of the assay; settings: 72 h; co-treatment: GSK2830371 at IC25 in IMR-32
[6] = tested on: IMR-32; experiment: as above; settings: 72 h; co-treatment: GSK2830371 at IC25 in IMR-32
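Wherever drug sensitivity score (DSS) in combination with GSK2830371 is given: neuroblastoma cells in 384-well plates, each compound at five concentrations, luminescence read-out, DSS derived from fitted concentration-response curve combining IC50 with minimum and maximum inhibition.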
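Wherever drug sensitivity score (DSS) in combination with SL-176 is given: cells in 384-well plates, luminescence read-out, each screening drug at five concentrations, DSS derived from the fitted concentration-response curve combining IC50 with minimum and maximum inhibition.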
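Wherever drug sensitivity score (DSS), single drug with vehicle is given: 384-well screen with five concentrations per compound and a luminescence read-out, DSS computed from the fitted dose-response curve combining IC50 with minimum and maximum inhibition.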

Compound | drug sensitivity score [1] | drug sensitivity score [2] | drug sensitivity score [3] | drug sensitivity score [4] | drug sensitivity score [5] | drug sensitivity score [6]
COc1cc2ncnc(Nc3cccc(Cl)c3F)c2cc1OC(=O)N1CCN(C)C[C@H]1C | 0 | 0 | 0 | 0 | 0 | 0
O=C(O)c1ccc(-c2c[nH]c3ncc(-c4ccccc4)cc23)cc1C1CCCC1 | 5.2 | 1.6 | 0.8 | 2.8 | 2.6 | 5.7
COC(=O)c1ccc([C@H]2c3[nH]c4ccccc4c3C[C@H](C(=O)OC)N2C(=O)CCl)cc1 | 0.5 | 0 | 0 | 0 | 0 | 0
C[C@]1(O)C[C@@H](c2nc(-c3ccc4ccc(-c5ccccc5)nc4c3)c3c(N)nccn32)C1 [Linsitinib] | 2.3 | 2.8 | 4.2 | 7.2 | 1.6 | 2.4
COc1ccc(S(=O)(=O)Nc2cccnc2Nc2ccc(O)cc2)cc1 | 21.4 | 16.2 | 16.2 | 21.7 | 17.2 | 23.7
COc1ccc(Cn2ccc3ccc(C(=O)NO)cc32)cc1 | 5.9 | 2.7 | 4.7 | 9.4 | 3.8 | 9.5
Cc1cc2c(F)c(Oc3ncnn4cc(OC[C@@H](C)O)c(C)c34)ccc2[nH]1 [Brivanib] | 1.5 | 0 | 0 | 1.2 | 0 | 2
CN[C@@H]1C[C@H]2O[C@@](C)([C@@H]1OC)n1c3ccccc3c3c4c(c5c6ccccc6n2c5c31)C(=O)N[C@H]4O | 22.4 | 26.2 | 26.6 | 25.7 | 26.4 | 27.8
O=c1[nH]c(C2CCCN2)nc2c1oc1ccc(Cl)cc12 (configuration not stated) | 9.2 | 0 | 0 | 9.8 | 0 | 9.6
COC(=O)C[C@](O)(CCCC(C)(C)O)C(=O)O[C@@H]1C(OC)=C[C@]23CCCN2CCc2cc4c(cc2[C@H]13)OCO4 [Omacetaxine] | 29.5 | 28.7 | 26.1 | 33.2 | 27.9 | 30.7
COc1nc(N)nc2c1ncn2[C@@H]1O[C@H](CO)[C@@H](O)[C@@H]1O [Nelarabine] | 0.4 | 0 | 0 | 10.5 | 0 | 1.2
O=C(Nc1cccnc1)N1CCC(Cc2cccc(Oc3ccc(C(F)(F)F)cn3)c2)CC1 | 0 | 1.4 | 1.2 | 0.2 | 0.2 | 0.1
C#Cc1cccc(Nc2ncnc3cc(OCCOC)c(OCCOC)cc23)c1 [Erlotinib] | 0 | 1.2 | 0.9 | 1.4 | 1.5 | 2.7
O=C1c2c(O)ccc(O)c2C(=O)c2c(NCCNCCO)ccc(NCCNCCO)c21 [Mitoxantrone] | 31.3 | 7.4 | 7.1 | 32.2 | 7.3 | 31.4
CN1CCN(c2cc(C(=O)Nc3ccc4c(c3)-c3c(c(C(N)=O)nn3-c3ccc(F)cc3)CC4)c(Cl)cn2)CC1 | 9.2 | 4.8 | 6.7 | 8.7 | 6.1 | 9.5
CNC(=O)c1ccc(-c2cnc3ncc(Cc4ccc5ncccc5c4)n3n2)cc1F [Capmatinib] | 0 | 0 | 0 | 0 | 0 | 0
CC[C@H](NC(=O)[C@H](C)NC)C(=O)N1C[C@@H](O)C[C@H]1Cc1c(-c2[nH]c3cc(F)ccc3c2C[C@@H]2C[C@H](O)CN2C(=O)[C@H](CC)NC(=O)[C@H](C)NC)[nH]c2cc(F)ccc12 [Birinapant] | 0 | 0 | 0.5 | 0 | 0 | 0
CN(C)Cc1ccc(S(=O)(=O)n2ccc(/C=C/C(=O)NO)c2)cc1 [Resminostat] | 16.5 | 12.8 | 11.2 | 15.7 | 12.5 | 17.8
CN1CCN(C2CCC(n3cc(-c4ccc(Oc5ccccc5)cc4)c4c(N)ncnc43)CC2)CC1 (configuration not stated) | 7.7 | 10.7 | 10.6 | 7 | 12 | 5.3
NCCNc1ccc(NCCN)c2c1C(=O)c1ccncc1C2=O [Pixantrone] | 1.2 | 0.9 | 1.1 | 0.8 | 0.9 | 0.9
CN(C)C1CCN(C(=O)c2ccc(NC(=O)Nc3ccc(-c4nc(N5CCOCC5)nc(N5CCOCC5)n4)cc3)cc2)CC1 [Gedatolisib] | 11.9 | 10.3 | 10.1 | 12.9 | 10.4 | 16.3
COc1cc2c(N3CCN(C(=O)Nc4ccc(OC(C)C)cc4)CC3)ncnc2cc1OCCCN1CCCCC1 [Tandutinib] | 0 | 0 | 0 | 0 | 0 | 0
Cc1sc2c(c1C)C(c1ccc(Cl)cc1)=N[C@@H](CC(=O)Nc1ccc(OCCOCCOCCOCCNc3cccc4c3C(=O)N(C3CCC(=O)NC3=O)C4=O)cc1)c1nnc(C)n1-2 (some centres not stated) | 20.7 | 5.4 | 5.4 | 24.3 | 5.7 | 21.2
Cc1[nH]c2ccccc2c1CCNCc1ccc(/C=C/C(=O)NO)cc1 [Panobinostat] | 23.7 | 18.9 | 17.8 | 24.2 | 18.7 | 24.9

Compound | drug sensitivity score [1] | drug sensitivity score [2] | drug sensitivity score [3] | drug sensitivity score [4] | drug sensitivity score [5] | drug sensitivity score [6]
Cc1nn(C)c(COc2ccc(N3CCN(S(=O)(=O)N(C)C)CC3)cc2)c1-c1cccc2c(CCCOc3cccc4ccccc34)c(C(=O)O)n(CCN3CCOCC3)c12 | 4.6 | 8.9 | 8.7 | 10.8 | 8.2 | 7
CC[C@H](CC#N)OC(=O)N[C@@H](C)c1cccc(NC(=O)Nc2ccc(-c3cnco3)c(OC)c2)c1 | 25.8 | 13.4 | 16.8 | 26.7 | 17.2 | 28.9
O=C(Nc1cc(Cl)cc2c1[nH]c1cnccc12)c1cccnc1 | 3.5 | 0.1 | 0.4 | 0.5 | 0.4 | 5
O=c1[nH]c(=O)n([C@H]2C[C@H](O)[C@@H](CO)O2)cc1F [Floxuridine] | 28.5 | 5.2 | 6.3 | 23.2 | 6.2 | 33
C=CC(=O)Nc1cc(Nc2nccc(-c3cn(C)c4ccccc34)n2)c(OC)cc1N(C)CCN(C)C [Osimertinib] | 7.7 | 5 | 4 | 7.8 | 4.9 | 8.7
O=C1CCc2c(Oc3ccc4c(c3)[C@@H]3[C@H](O4)[C@H]3c3nc4cc(C(F)(F)F)ccc4[nH]3)ccnc2N1 | 6.2 | 8.3 | 7.7 | 7.5 | 8.4 | 8.9
CN1CCN(CCOc2cc(OC3CCOCC3)c3c(Nc4c(Cl)ccc5c4OCO5)ncnc3c2)CC1 [Saracatinib] | 6.1 | 4.8 | 4.4 | 3.7 | 4.5 | 10.7
CC(C)[C@H](C(=O)Nc1ccc(C(=O)NO)cc1)c1ccccc1 | 20.7 | 16.9 | 15.8 | 20.5 | 16.3 | 21.7
Cn1cc(C2=Nc3cc(NC(=O)C(N)C4CCCCC4)cc4c3C2=CNNC4=O)cn1 (configuration not stated) | 24.7 | 16.6 | 15.6 | 20.2 | 16.8 | 28
NC(=O)/C(=C/n1cnc(-c2cc(C(F)(F)F)cc(C(F)(F)F)c2)n1)c1cncnc1 [Eltanexor] | 34.3 | 20.9 | 22.1 | 34.6 | 21.6 | 36.1
CN(Cc1cnc2nc(N)nc(N)c2n1)c1ccc(C(=O)N[C@@H](CCC(=O)O)C(=O)O)cc1 [Methotrexate] | 18.7 | 7.9 | 9.7 | 13.5 | 13.1 | 17.7
NS(=O)(=O)NCCNc1nonc1/C(=N/O)Nc1ccc(F)c(Br)c1 [Epacadostat] | 0 | 0.5 | 0 | 0 | 0.3 | 0.1
CCN(c1cc(-c2ccc(CN3CCOCC3)cc2)cc(C(=O)NCc2c(C)cc(C)[nH]c2=O)c1C)C1CCOCC1 [Tazemetostat] | 0.2 | 0 | 0 | 0 | 0 | 1.6
CN(C)C/C=C/C(=O)Nc1cc2c(Nc3ccc(F)c(Cl)c3)ncnc2cc1O[C@H]1CCOC1 [Afatinib] | 0 | 0.1 | 0 | 0 | 0 | 0
Cc1cc(C(C)Nc2ccccc2)c2nc(N3CCOCC3)cc(=O)n2c1 (configuration not stated) | 0 | 0.3 | 0.4 | 0 | 0.7 | 3
CCN(CC)CCOc1ccc(C(=C(Cl)c2ccccc2)c2ccccc2)cc1 [Clomifene] | 6 | 4.9 | 8 | 5.4 | 6.4 | 7.3
O=C(O)C1(C(=O)O)CCC1.[NH2-].[NH2-].[Pt+2] [Carboplatin] | 15.6 | 4.8 | 0.9 | 16.2 | 5.7 | 26.7
C=CCn1c(=O)c2cnc(Nc3ccc(N4CCN(C)CC4)cc3)nc2n1-c1cccc(C(C)(C)O)n1 | 19 | 19.9 | 19.7 | 21 | 19.6 | 19
CC(C)c1cc(-c2n[nH]c(=O)n2-c2ccc3c(ccn3C)c2)c(O)cc1O [Ganetespib] | 14.2 | 19.2 | 24.1 | 14.8 | 18.5 | 13.8
CC(C)(C)NC(=O)[C@H]1CC[C@H]2[C@@H]3CC[C@H]4NC(=O)C=C[C@]4(C)[C@H]3CC[C@]12C [Finasteride] | 0 | 0 | 0 | 0 | 0 | 0.2
Cc1ccc(C(=O)Nc2ccc(Oc3cc4cnn(C)c4cc3-c3cn[nH]c3)c(F)c2)c(=O)n1-c1ccc(F)cc1 [Merestinib] | 0.5 | 0 | 0 | 0.8 | 0 | 1.2
CCS(=O)(=O)Nc1ccc(Oc2ccc(F)cc2F)c(-c2cn(C)c(=O)c3[nH]ccc23)c1 [Mivebresib] | 26.7 | 19.6 | 19.9 | 27.5 | 20.3 | 34.7
COc1cc2c(NC3CCN(C(C)C)CC3)nc(C3CCCCC3)nc2cc1OCCCN1CCCC1 | 4.7 | 5.4 | 6.9 | 6 | 6.5 | 7.5
